# According to the supplement of paper PMC10338343:
# ± gives the standard deviation. The entries are a selection whose mix differs from that of the whole data set.
# Tested on: MIWI (PIWIL1) piRISC loaded with piRNA #1 (30 nt)
# Test: pre-steady-state target cleavage rate (min^-1); MIWI and MILI are mouse PIWI proteins and EfPiwi is from a freshwater sponge; tags in brackets are library labels; higher = faster piRNA-guided slicing of the target
# Settings: guide: piRNA #1 5'p-UGAGGUAGUAGGUUGUAUAGUAUCCAGAGG; auxiliary factor: 500 nM mouse GTSF1
# Procedure, shortened: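 The pre-steady-state cleavage rate was calculated from a burst-and-steady-state fit. Data came from Cleave-'n-Seq, in which […] transcribed, DNA-blocked target RNA library was mixed with 1 nM active affinity-purified piRISC carrying one synthetic guide, with or without 500 nM GTSF1 partner protein, in HEPES–potassium acetate buffer at 33 °C for 0–8 or 0–960 min. Uncleaved targets were sequenced and normalised to depth and to weakly complementary targets, three trials were pooled, and k3 was capped at 0.0001 min^-1.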
# 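Note: 1 nM active piRISC with 0.1 nM target library at 33 °C single turnover.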
row,Sequence,pre-steady-state target cleavage rate
1,GGACUGGAUACUUUACAACCUACUACCUGA,0.287 ± 0.069
2,GGUCUGGAUACUAUACAACCUAUCUACCUCA,0.354 ± 0.025
3,GGAGAGGAUACUUUACAACCUACUACCUGA,0.243 ± 0.033
4,GGAGACCUAUCUAUACAACCUUCUAGCUCA,0.0565 ± 0.01
5,GGUCUGGAUACUAUACAACCUACUACCUCU [g2:g28:cont:t1U],1.59 ± 0.11
6,GCUCUGGAUACUAUAGAACCUACAACCUCA,0.00811 ± 0.0027
7,GGAGACCUAUGUAUACGACCUACUACCUCA,0.0188 ± 0.0031
8,GGAGACCUUACUAUACUACCUACUACCUCA,0.613 ± 0.045
9,GGUCUGGAUUCUAUACAACCUUCUACCUCA,0.7 ± 0.034
10,GGAGAGGAUACUUUACAACCUAGUACCUCA,0.118 ± 0.02
11,GCUCUGGAUACUAUACAACCUUCUACCUCA,0.663 ± 0.033
12,GGAGACCAUACUUUACAACCUACUUCCUCA,0.249 ± 0.041
13,GGAGACCUAACUAUACAACCAACUACCACA,0.0132 ± 0.0044
14,GGAGAGGAACUAUACAACCUACUACCUCA,1.46 ± 0.08
15,GGAGACCUAUGAUAACUUGCUACUACCUCA,< 0.0001
16,GGAGAAGAUACUAUACAACCUACUACCUCA,2.04 ± 0.11
17,GGAGACCUUACUAUUCAACCUACAACCUCA,0.258 ± 0.029
18,GGAGACCUAUGUAUACAACCUAGUACGUCA,0.0105 ± 0.0022
19,GGACUGGAUACUAUACUUCCUACUACCUCA,0.145 ± 0.022
20,GGACUGGAUUCUAUACAACCUACUACCACA,0.861 ± 0.07
21,GCUCUGCAUAGUAUACAACCUACUACCUCA,1.77 ± 0.11
22,GGACUGGAUACUAUACAACCUACUAGCCUCA,0.501 ± 0.074
23,GGAGUGCAUACUAUACUACCUACUACCUCA,1.13 ± 0.092
24,GGAGAGGAUACUAUUCAAGCUACUACCUCA,0.436 ± 0.03
